Reference: paper PMC4336329 (PLoS ONE, 2015)
Out of some 310,000 compounds screened, about 2,200 (0.71%) showed an effect of 50% or more. Effects have a minus sign here. The list shows a part of the results.

Target: human ether-à-go-go-related gene (hERG) potassium channel (human, UniProt Q12809)
Assay: primary screen, population patch clamp on CHO cells stably expressing hERG

Sequence of human ether-à-go-go-related gene (hERG) potassium channel (Q12809 whole entry, looked up): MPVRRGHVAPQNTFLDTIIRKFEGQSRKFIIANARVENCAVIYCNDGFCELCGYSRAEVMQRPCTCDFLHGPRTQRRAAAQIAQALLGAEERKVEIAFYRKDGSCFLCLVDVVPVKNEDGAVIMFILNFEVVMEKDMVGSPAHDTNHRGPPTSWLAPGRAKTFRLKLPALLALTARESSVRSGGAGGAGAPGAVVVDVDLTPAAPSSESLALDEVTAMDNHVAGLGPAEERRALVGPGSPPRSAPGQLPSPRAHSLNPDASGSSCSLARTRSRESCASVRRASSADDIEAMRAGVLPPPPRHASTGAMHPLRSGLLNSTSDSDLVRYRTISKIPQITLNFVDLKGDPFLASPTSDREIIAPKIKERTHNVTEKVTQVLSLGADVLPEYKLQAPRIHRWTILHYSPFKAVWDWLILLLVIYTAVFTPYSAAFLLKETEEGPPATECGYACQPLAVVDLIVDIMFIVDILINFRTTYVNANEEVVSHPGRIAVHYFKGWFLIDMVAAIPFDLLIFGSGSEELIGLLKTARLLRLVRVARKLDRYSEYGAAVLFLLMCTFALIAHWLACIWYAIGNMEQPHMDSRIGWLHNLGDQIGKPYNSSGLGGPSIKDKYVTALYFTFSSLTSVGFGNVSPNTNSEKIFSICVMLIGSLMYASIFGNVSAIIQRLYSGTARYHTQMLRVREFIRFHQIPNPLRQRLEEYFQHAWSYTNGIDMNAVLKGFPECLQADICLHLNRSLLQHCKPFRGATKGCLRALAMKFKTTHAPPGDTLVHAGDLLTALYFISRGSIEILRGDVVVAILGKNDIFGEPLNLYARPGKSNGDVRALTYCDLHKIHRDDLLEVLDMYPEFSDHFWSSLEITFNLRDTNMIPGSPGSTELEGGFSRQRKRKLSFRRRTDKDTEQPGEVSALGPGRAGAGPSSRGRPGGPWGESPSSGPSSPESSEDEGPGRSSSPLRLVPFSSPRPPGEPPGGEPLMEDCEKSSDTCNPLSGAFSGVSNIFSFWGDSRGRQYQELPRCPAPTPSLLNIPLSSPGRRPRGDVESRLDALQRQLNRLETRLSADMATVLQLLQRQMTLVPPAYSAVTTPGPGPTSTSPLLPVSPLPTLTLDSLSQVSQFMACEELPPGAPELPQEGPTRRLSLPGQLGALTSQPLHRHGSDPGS

First: O=C(Nc1ccc(S(=O)(=O)N2CCOCC2)cc1)c1ccc2ncsc2c1
Second: O=C(COc1ccc(S(=O)(=O)N2CCOCC2)cc1)N1CCCCCC1
The “hERG current change (%, negative = inhibition) at 1uM” value of the first is lower: 4.89% for the first, 25.1% for the second.

Compared with `COc1ccc(-c2cc(-c3n[nH]c(=S)n3-c3cccc4ccccc34)[nH]n2)cc1`, `COc1ccc(-c2c(C)[nH]n3c(=O)c(Cc4ccccc4)c(C)nc23)cc1` is lower in “hERG current change (%, negative = inhibition) at 1uM” value: 8.02% for the first, 2.54% for the second.

Going from `CCCN1CCC(NC(=O)Nc2ccc(F)cc2F)CC1` to `CCOC(=O)C1CCCN(CCC(=O)Nc2ccc(Br)c(C)c2)C1.Cl` (stereo not drawn), the “hERG current change (%, negative = inhibition) at 1uM” value falls from 17.3% to 0.54%.

Going from `COc1ccc(C2=NS(=O)(=O)N(C)C(C(=O)Nc3ccc(C(C)=O)cc3)=C2)cc1OC` to `COc1cc(C(=O)OCc2ccc(C)cc2)cc(NC(=O)c2cccs2)c1OC`, the “hERG current change (%, negative = inhibition) at 1uM” value falls from 12.4% to 9.66%.

Compared with `CCN1CCN(c2ccc(S(=O)(=O)N3CCCCC3)cc2NC(=O)c2sccc2C)CC1`, `O=C(c1ccc(N2CCCC2)c([N+](=O)[O-])c1)N1CCN(S(=O)(=O)c2ccc(Cl)cc2)CC1` is higher in “hERG current change (%, negative = inhibition) at 1uM” value: -25.8% for the first, 1.42% for the second.

Compared with `O=c1[nH]c(O)c(C=Nc2cccc(F)c2)c(=O)[nH]1`, `COc1ccc(-n2c(O)c(/C=C3\C=Nc4ccc(Br)cc43)c(=O)[nH]c2=O)cc1` is lower in “hERG current change (%, negative = inhibition) at 1uM” value: 14% for the first, 12% for the second.

First: Cc1ccc(N2C(=O)c3ccccc3C2C(=O)c2ccc(O)cc2O)cc1 (stereo not drawn)
Second: Cc1ccc(O)c(C2=Nc3ccccc3N=C(c3ccc([N+](=O)[O-])cc3)C2)c1
The “hERG current change (%, negative = inhibition) at 1uM” value of the first is lower: -8.41% for the first, 13.9% for the second.

Compared with `COc1ccc(/C=C/C(=O)Nc2cccc(S(=O)(=O)NC3=NCCCCC3)c2)c(OC)c1`, `COc1ccc(N(CC(=O)Nc2ccccc2OC)S(=O)(=O)c2ccc(OC)c(OC)c2)cc1` is higher in “hERG current change (%, negative = inhibition) at 1uM” value: 4.09% for the first, 9.33% for the second.

First: O=C(O)c1nn(CC(=O)N2CCC(Cc3ccccc3)CC2)c(=O)c2ccccc12
Second: CCOC(=O)C(=O)N1CCC(Cc2ccccc2)CC1
The “hERG current change (%, negative = inhibition) at 1uM” value of the first is higher: 10.9% for the first, 0.375% for the second.

Compared with `COc1cc(/C=C2/N=C(C3CCCCC3)OC2=O)cc(OC)c1OC`, `COc1cc(CC(=O)NCc2ccco2)cc(OC)c1OC` is higher in “hERG current change (%, negative = inhibition) at 1uM” value: -7.35% for the first, 15.6% for the second.

Going from `C=CCN1CN(S(=O)(=O)c2cccc(Cl)c2)c2nc3ccccc3nc21` to `CS(=O)(=O)n1nc(-c2ccc(Cl)cc2)nc1SCc1ccccc1`, the “hERG current change (%, negative = inhibition) at 1uM” value falls from 15.1% to -15.9%.

Compared with `O=C(CSc1nnc2c(n1)[nH]c1ccccc12)Nc1nncs1`, `Cc1ccc(-c2csc(NC(=O)Cn3[nH]c(=O)c4ccccc4c3=O)n2)cc1` is lower in “hERG current change (%, negative = inhibition) at 1uM” value: 16.2% for the first, 12.2% for the second.

First: COc1ccccc1-c1noc(CSc2nc(N)cc(=O)[nH]2)n1
Second: COc1cccc2cc(CC(=O)c3ccc(C)c(C)c3)c(=O)oc12
The “hERG current change (%, negative = inhibition) at 1uM” value of the first is higher: 17.5% for the first, 14.2% for the second.

Going from `CN(CCc1ccccn1)C(=O)CN(C)S(=O)(=O)c1ccc2c(c1)c(=O)n(C)c(=O)n2C` to `COCCN(CCOC)S(=O)(=O)c1ccc(C(=O)Nc2c(C)n(C)n(-c3ccccc3)c2=O)cc1`, the “hERG current change (%, negative = inhibition) at 1uM” value falls from 15.9% to 7.95%.

Compared with `CCOc1cc(N2CCOCC2)c(OCC)cc1NC(=O)c1ccccc1C`, `CCCc1cc2c(cc1NC(=O)c1ccccc1Cl)OCO2` is higher in “hERG current change (%, negative = inhibition) at 1uM” value: 9.38% for the first, 18.4% for the second.

First: Cc1ccc(S(=O)(=O)N2CCc3c2cc([N+](=O)[O-])cc3[N+](=O)[O-])cc1
Second: Cc1ccc(S(=O)(=O)N2CCCN(S(=O)(=O)C3CCS(=O)(=O)C3)CC2)cc1 (stereo not drawn)
The “hERG current change (%, negative = inhibition) at 1uM” value of the first is higher: 12% for the first, -21.3% for the second.

First: Cc1cc(C)c2cc(C#N)c(SCC(=O)NCC3CCCO3)nc2c1 (stereo not drawn)
Second: Cc1cccc(N(CC(=O)NCC2CCCO2)C(=O)CNS(=O)(=O)c2ccc(Cl)cc2)c1 (stereo not drawn)
The “hERG current change (%, negative = inhibition) at 1uM” value of the first is lower: -2.04% for the first, 8.75% for the second.

Going from `COC(=O)C1=C(C)OC(N)=C(C#N)C1c1ccco1` (stereo not drawn) to `COc1ccc(/C=C(\C#N)C(=O)c2c(C)[nH]c3ccccc23)cc1OC`, the “hERG current change (%, negative = inhibition) at 1uM” value falls from 18.7% to 9.74%.

First: O=C(COc1ncnc2sccc12)N1CCN(c2ccccc2)CC1.O=C(O)C(=O)O
Second: CSCCC(NC(=O)c1ccco1)C(=O)N1CCN(c2ccccc2O)CC1 (stereo not drawn)
The “hERG current change (%, negative = inhibition) at 1uM” value of the first is higher: -5.02% for the first, -5.59% for the second.

First: Cc1ccc2c(c1)SC1=NC(c3ccccc3)(C(F)(F)F)NC(=O)N12 (stereo not drawn)
Second: CC1=NN(c2ccccc2)C(=O)C1/C=C1\NC(=S)NC1=O (stereo not drawn)
The “hERG current change (%, negative = inhibition) at 1uM” value of the first is lower: 10.5% for the first, 20.9% for the second.

First: Cc1ccc(O)c(C(CC(=O)N2CCCC2)c2ccccc2)c1 (stereo not drawn)
Second: Cc1ccc(SCn2nnc3ccccc3c2=O)c(C)c1
The “hERG current change (%, negative = inhibition) at 1uM” value of the first is lower: -5.51% for the first, 6.58% for the second.

First: COc1ccc(Cn2nnnc2C(c2ccc(N(C)C)cc2)N2CCC(C)CC2)cc1 (stereo not drawn)
Second: CCOC(=O)N1CCN(Cc2nc(N)nc(Nc3ccc(OC)cc3)n2)CC1
The “hERG current change (%, negative = inhibition) at 1uM” value of the first is higher: 10% for the first, -9.74% for the second.

Compared with `COc1ccc(C(=O)OCCN2C(=O)c3ccccc3C2=O)cc1`, `CCCOc1ccc(C(=O)NC(=S)NNC(=O)c2c(-c3ccccc3)noc2C)cc1` is higher in “hERG current change (%, negative = inhibition) at 1uM” value: 6.89% for the first, 9.11% for the second.

Compared with `COc1ccc2c(c1)cc1n2CCN=C1NCCO.Cl`, `COc1ccc(C(O)(CCc2ccccc2)CCN2CCCCC2)cc1.Cl` (stereo not drawn) is lower in “hERG current change (%, negative = inhibition) at 1uM” value: 7.67% for the first, 4.09% for the second.

First: O=C(NCCN1CCCOC1=O)C(=O)NCCN1CCCOC1=O
Second: NC(=O)CC(NC(=O)c1ccccc1)c1ccc(NCCN2CCOCC2)c([N+](=O)[O-])c1 (stereo not drawn)
The “hERG current change (%, negative = inhibition) at 1uM” value of the first is higher: 7.52% for the first, 7.41% for the second.

First: O=C(NCc1nnc(SCC(=O)N2CCCc3ccccc32)o1)c1c(F)cccc1Cl
Second: c1ccc(CSc2nnc(Cc3ccccn3)o2)cc1
The “hERG current change (%, negative = inhibition) at 1uM” value of the first is lower: 7.2% for the first, 21% for the second.

Compared with `Cn1cccc1-c1cc(C(=O)N/N=C/c2ccc(Cl)cc2)[nH]n1`, `COC(=O)/C(=C\Nc1ccc(Cl)cc1Cl)NC(=O)c1ccccc1` is lower in “hERG current change (%, negative = inhibition) at 1uM” value: 5.49% for the first, 4.82% for the second.

Compared with `CC(=O)N1CCN(C(=O)COC(=O)CNC(=O)c2ccc(C)cc2)CC1`, `Cc1ccc(C(=O)Nc2ccc(N3CCN(C)CC3)cc2)cc1C.Cl` is lower in “hERG current change (%, negative = inhibition) at 1uM” value: 10.1% for the first, -0.23% for the second.

Compared with `O=C(CSc1ccccc1)N[C@@H](Cc1ccccc1)C(=O)O`, `CCCCNC(=O)CSc1cc(=O)n(C)c2ccccc12` is higher in “hERG current change (%, negative = inhibition) at 1uM” value: 11.8% for the first, 16.2% for the second.

First: CC1CCCCN1C/C=C/c1ccccc1[N+](=O)[O-] (stereo not drawn)
Second: CC(C)(CNS(=O)(=O)c1ccc(Cl)cc1)N1CCCCC1
The “hERG current change (%, negative = inhibition) at 1uM” value of the first is lower: -12.4% for the first, -1.77% for the second.

Going from `Cc1ccc(N(Cc2cc3cc(C)ccc3[nH]c2=O)S(=O)(=O)c2ccccc2)cc1` to `Cc1ccc(C)c(Cn2c3ccccc3c3cnn(CC(=O)NCc4ccccn4)c(=O)c32)c1`, the “hERG current change (%, negative = inhibition) at 1uM” value rises from 7.71% to 17.4%.

Going from `COc1ccc(C=O)cc1C1=CC(=O)C[C@H](c2ccc(Cl)cc2)C1` to `Fc1ccc2c(c1)C(c1ccncc1)=NNC(c1ccc(Cl)cc1)=N2`, the “hERG current change (%, negative = inhibition) at 1uM” value falls from 2.2% to 0.45%.

First: CN(C)S(=O)(=O)c1cccc(C(=O)Nc2ccccc2)c1
Second: O=C(Nn1cnnc1)c1cc(-c2cccc(Br)c2)nc2ccccc12
The “hERG current change (%, negative = inhibition) at 1uM” value of the first is higher: 17.7% for the first, 12.8% for the second.

Going from `O=S(=O)(Nc1nccs1)c1cc(Cl)ccc1Cl` to `CC(C)c1onc(C(=O)Nc2cccc(Cl)c2)c1[N+](=O)[O-]`, the “hERG current change (%, negative = inhibition) at 1uM” value rises from 0.942% to 10.3%.

First: CCOC(=O)C1(Cc2ccccc2C(F)(F)F)CCN(C(C)CSC)CC1 (stereo not drawn)
Second: CN(C)CCN(C)Cc1ccccc1Sc1cccc2ccccc12.Cl
The “hERG current change (%, negative = inhibition) at 1uM” value of the first is higher: 6.54% for the first, -4.04% for the second.

First: Cc1ccc(O)c(NC(=O)C2CC(c3cccc(Br)c3)=NO2)c1 (stereo not drawn)
Second: O=C(NNc1nc2c(F)cccc2s1)C1COc2ccccc2O1 (stereo not drawn)
The “hERG current change (%, negative = inhibition) at 1uM” value of the first is lower: 0.541% for the first, 13.7% for the second.

Going from `COc1ccc(C(C(=O)NCc2ccccc2)N(C(=O)c2snc(C(N)=O)c2N)c2ccccc2OC)cc1` (stereo not drawn) to `O=C(NC1=NCCS1)c1ccccc1OCc1ccccc1Cl`, the “hERG current change (%, negative = inhibition) at 1uM” value falls from 16.3% to 8.85%.

Going from `CC(=O)Nc1ccc(NC(=O)Cn2nc(C(=O)Nc3ccc(C)cc3)ccc2=O)cc1` to `COc1ccccc1NC(=O)Cn1nnc2sc3c(c2c1=O)CC(C)(C)OC3`, the “hERG current change (%, negative = inhibition) at 1uM” value falls from 19.7% to 14.8%.

Compared with `Nc1nnc(SCC(=O)NCc2ccc3c(c2)OCO3)s1`, `COc1cc(C(=O)Nc2nnc(C3CC3)s2)ccc1OCc1c(C)noc1C` is lower in “hERG current change (%, negative = inhibition) at 1uM” value: 13.6% for the first, 9.86% for the second.

Compared with `CCOC(=O)c1cc(CC)sc1NC(=O)COC(=O)C1CCC1`, `CCOC(=O)c1c(C2CC2)csc1NC(=O)CSCc1c(C)noc1C` is higher in “hERG current change (%, negative = inhibition) at 1uM” value: 4.87% for the first, 11.4% for the second.

First: CCCCC(=O)Nc1ccc(Cl)cn1
Second: Cc1c(C)n(CCN(C)C)c2ccc(C(=O)OCCN(C)C)cc12.Cl
The “hERG current change (%, negative = inhibition) at 1uM” value of the first is lower: -4% for the first, 4.47% for the second.

First: Cl.Nc1nc(Nc2cccc(F)c2)nc2ccccc12
Second: Fc1c(F)c(F)c(N=Cc2ccc3ncccc3c2)c(F)c1F
The “hERG current change (%, negative = inhibition) at 1uM” value of the first is lower: 5.64% for the first, 7.15% for the second.

First: Cc1cccc(-n2cnc3sc(C)c(C)c3c2=O)c1
Second: Cc1csc2nc(O)c(C(=O)NC3CCCCC3C)c(=O)n12 (stereo not drawn)
The “hERG current change (%, negative = inhibition) at 1uM” value of the first is higher: 10.3% for the first, -16.1% for the second.

In the case of `CC1(C)NC(C)(C)C(O)(C(N)=O)C1=O` (stereo not drawn), the “hERG current change (%, negative = inhibition) at 1uM” value is reported as -0.542%.
